Measured values from the GPR68 mutational scans of Howard et al. (2025).
Scores with a large standard error are left out. Not listed are two conditions whose scores span a narrow range. In variant names, del marks residues removed and ins residues inserted between the two positions. For some assays here: How much ogerin was present is not stated here.

B1: GPR68, Q15743 (parent)
chain: MGNITADNSSMSCTIDHTIHQTLAPVVYVTVLVVGFPANCLSLYFGYLQIKARNELGVYLCNLTVADLFYICSLPFWLQYVLQHDNWSHGDLSCQVCGILLYENIYISVGFLCCISVDRYLAVAHPFRFHQFRTLKAAVGVSVVIWAKELLTSIYFLMHEEVIEDENQHRVCFEHYPIQAWQRAINYYRFLVGFLFPICLLLASYQGILRAVRRSHGTQKSRKDQIQRLVLSTVVIFLACFLPYHVLLLVRSVWEASCDFAKGVFNAYHFSLLLTSFNCVADPVLYCFVSETTHRDLARLRGACLAFLTCSRTGRAREAYPLGAPEASGKSGAQGEEPELLTKLHPAFQTPNSPGSGGFPTGRLA

Columns and labels:
[1] = variants of: B1; test: cAMP reporter score (Enrich2 score, wild type = 0); higher = more signal; HEK293T, FACS bins
[2] = variants of: B1; test: surface expression score (Enrich2 score, wild type = 0); higher = more signal; HEK293T, FACS bins

Variant	cAMP reporter score ([1]; pH 5.5)	cAMP reporter score ([1]; pH 6)	cAMP reporter score ([1]; pH 6, modulator: ogerin)	cAMP reporter score ([1]; pH 6.5, modulator: ogerin)	surface expression score [2]
MGNITADNSSMSCTIDHTIHQTLAPVVYVTVLVVGFPANCLSLCFGYLQIKARNELGVYLCNLTVADLFYICSLPFWLQYVLQHDNWSHGDLSCQVCGILLYENIYISVGFLCCISVDRYLAVAHPFRFHQFRTLKAAVGVSVVIWAKELLTSIYFLMHEEVIEDENQHRVCFEHYPIQAWQRAINYYRFLVGFLFPICLLLASYQGILRAVRRSHGTQKSRKDQIQRLVLSTVVIFLACFLPYHVLLLVRSVWEASCDFAKGVFNAYHFSLLLTSFNCVADPVLYCFVSETTHRDLARLRGACLAFLTCSRTGRAREAYPLGAPEASGKSGAQGEEPELLTKLHPAFQTPNSPGSGGFPTGRLA [Y44C]	-1.32	0.202	-0.246	-0.668	-1.76
MGNITADNSSMSCTIDHTIHQTLAPVVYVTVLVVGFPANCLSLDFGYLQIKARNELGVYLCNLTVADLFYICSLPFWLQYVLQHDNWSHGDLSCQVCGILLYENIYISVGFLCCISVDRYLAVAHPFRFHQFRTLKAAVGVSVVIWAKELLTSIYFLMHEEVIEDENQHRVCFEHYPIQAWQRAINYYRFLVGFLFPICLLLASYQGILRAVRRSHGTQKSRKDQIQRLVLSTVVIFLACFLPYHVLLLVRSVWEASCDFAKGVFNAYHFSLLLTSFNCVADPVLYCFVSETTHRDLARLRGACLAFLTCSRTGRAREAYPLGAPEASGKSGAQGEEPELLTKLHPAFQTPNSPGSGGFPTGRLA [Y44D]	-1.57	-1.07	-1.73	-2.74	-1.79
MGNITADNSSMSCTIDHTIHQTLAPVVYVTVLVVGFPANCLSLAFGYLQIKARNELGVYLCNLTVADLFYICSLPFWLQYVLQHDNWSHGDLSCQVCGILLYENIYISVGFLCCISVDRYLAVAHPFRFHQFRTLKAAVGVSVVIWAKELLTSIYFLMHEEVIEDENQHRVCFEHYPIQAWQRAINYYRFLVGFLFPICLLLASYQGILRAVRRSHGTQKSRKDQIQRLVLSTVVIFLACFLPYHVLLLVRSVWEASCDFAKGVFNAYHFSLLLTSFNCVADPVLYCFVSETTHRDLARLRGACLAFLTCSRTGRAREAYPLGAPEASGKSGAQGEEPELLTKLHPAFQTPNSPGSGGFPTGRLA [Y44A]	-0.116	-1.25	-0.605	-0.299	-1.72
L41_S42insGSG	-0.549	0.769	-1.53	-0.227	-2.2
S42_L43insG	-0.968	-1.44	-1.2	-1.24	-2.77
A38_N39insGS	-1.09	-0.626	-2.42	-0.483	-2.74
L43_Y44insGSG	-1.45	-0.661	-1.71	-1.05	-2.27
P37del	-1.07	-0.464	-1.03	-0.589	-2.28
S42_L43insGS	-1.65	–	-2.23	-1.45	-3.02
L41_S42insG	-1.29	-0.374	-2.19	-1.51	-2.32
C40del	-0.884	0.541	-1.26	0.339	-2.02
L43del	-1.42	-1.03	-1.93	-1.67	-1.89
N39_L41del	-0.705	0.015	-1.25	-0.652	-2.22
A38_N39insGSG	-1.3	0.599	-1.59	-0.084	-1.51
P37_A38insGS	-0.482	0.625	-0.734	-0.295	-2.09
L41_S42insGS	-0.855	-0.278	-1.63	-1.58	-2.53
L43_Y44insG	-0.246	0.339	0.098	0.325	-2.07
N39_C40insG	-0.971	-0.493	-0.878	-0.664	-2.91
S42_L43insGSG	-0.343	-1.33	-0.988	-0.638	-1.5
N39_C40del	-0.91	-0.55	-0.724	-0.109	-2.25
C40_S42del	-1.39	-1.26	-1.43	-1.37	-2.42
